The supplement of paper PMC9446081
Hit rate of the full screen: of about 39,000 compounds, about 220 (0.56%) showed activity. The list shows a part of the results.

The compounds below were run on Escherichia coli K-12 BW25113 (assay: relative growth (OD600 normalised to plate interquartile mean) (fraction); higher = less growth inhibition, active = 0.2 or less). Conditions: 50 µM; LB; incubation time: overnight (16-24 h).
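Also: static incubation at 37 °C against the wild-type strain, values averaged over two biological replicates.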

Structure (SMILES) | relative growth
COc1ccc(CN(C)C[C@@H]2OCCCC[C@@H](C)Oc3ccc(NS(=O)(=O)c4c(C)noc4C)cc3C(=O)N([C@@H](C)CO)C[C@H]2C)cc1 | inactive: 1.01
CCNC(=O)[C@@H]1[C@@H](CO)[C@@H]2Cn3c(ccc(C4=CCCC4)c3=O)[C@H]1N2S(=O)(=O)c1cn(C)cn1 | inactive: 0.996
C[C@H](CO)N1C[C@H](C)[C@@H](CN(C)CC2CCCCC2)Oc2c(NC(=O)c3nc4ccccc4s3)cccc2C1=O | inactive: 0.789
CO[C@H]1CN(C)C(=O)c2ccc(NS(=O)(=O)CC(F)(F)F)cc2OC[C@@H](C)N(C(=O)c2ccc3c(c2)OCO3)C[C@@H]1C | inactive: 0.987
Cc1cc(C(=O)Nc2cccc3c2O[C@H](CN(C)C(=O)Nc2ccc4c(c2)OCO4)[C@H](C)CN([C@H](C)CO)C3=O)n(C)n1 | inactive: 0.991
C=CCC[C@H](Cc1ccc(F)cc1)C(=O)OC[C@@H]1CCCN1C(=O)[C@H](CC=C)CC(=O)N(CCO)Cc1ccccc1 | inactive: 1.05
O=C(O)CC1(C(F)(F)F)OCCO1 | inactive: 1.01
CCNc1cc(=N)n(CC)c2n[nH]c(N)c12 | inactive: 0.969
C[C@@H]1CCCCO[C@H](CN(C)C(=O)Nc2ccc3c(c2)OCO3)[C@@H](C)CN([C@H](C)CO)C(=O)c2cc(NC(=O)Nc3ccc4c(c3)OCO4)ccc2O1 | inactive: 1.02
C[C@@H]1CN([C@@H](C)CO)C(=O)c2cc(NC(=O)c3ccccc3)ccc2O[C@@H](C)CCCCO[C@@H]1CN(C)S(=O)(=O)c1cccs1 | inactive: 1.03
COc1cc(Cc2cnc(N)nc2N)cc(OC)c1OC | active: 0.044
C[C@@H]1CCCCO[C@H](CN(C)S(=O)(=O)c2cccs2)[C@@H](C)CN([C@H](C)CO)C(=O)c2cc(NC(=O)Nc3cccc4ccccc34)ccc2O1 | inactive: 0.987
CCCCC/C=C/C/C=C/C/C=C/C/C=C/CCCC(=O)O[C@H](CO)COC(=O)CCCCCCCCCCCCCCCCC | inactive: 1.01
CC(C)C[C@@H](NC(=O)[C@@H](C)N)C(=O)O | inactive: 0.991
CC(C)NC(=O)N(C)C[C@H]1Oc2cc(C#Cc3ccccn3)ccc2S(=O)(=O)N([C@@H](C)CO)C[C@@H]1C | inactive: 0.981
CC(C)CC#Cc1ccc2c(c1)O[C@H](CN(C)CC1CCOCC1)[C@H](C)CN([C@H](C)CO)S2(=O)=O | inactive: 0.977
C[C@H](CO)N1C[C@H](C)[C@H](CN(C)C(=O)Nc2cc(F)ccc2F)Oc2ncc(C#CCN(C)C)cc2C1=O | inactive: 0.987
COc1ccc(S(=O)(=O)N(C)C[C@H]2Oc3ccc(NS(=O)(=O)c4ccc(F)cc4)cc3CC(=O)N([C@H](C)CO)C[C@@H]2C)cc1 | inactive: 1.01
C[C@@H]1CCCCO[C@H](CN(C)C(=O)Nc2ccc(C(F)(F)F)cc2)[C@H](C)CN([C@H](C)CO)C(=O)c2cc(NS(=O)(=O)c3ccc(F)cc3)ccc2O1 | inactive: 0.992
CN(C)CC#Cc1ccc([C@H]2[C@H](CO)N3C(=O)CN(C(=O)c4cccnc4)C[C@@H]23)cc1 | inactive: 1.01
C[C@@H]1CN([C@@H](C)CO)C(=O)Cc2cc(NC(=O)C3CCCCC3)ccc2O[C@H]1CN(C)Cc1ccc(-c2ccccc2)cc1 | inactive: 0.987

Structure (SMILES) | relative growth
Cc1cccc(S(=O)(=O)N2C[C@@H](O)COC[C@@H]3O[C@H](CC(=O)N4CCN(C)CC4)CC[C@H]32)c1 | inactive: 0.986
CC(C)NC(=O)N(C)C[C@@H]1Oc2ccc(NC(=O)Cc3ccccc3)cc2C(=O)N([C@@H](C)CO)C[C@H]1C | inactive: 1
CC(C)NC(=O)Nc1cccc2c1O[C@H](CN(C)C(=O)Nc1ccc3c(c1)OCO3)[C@@H](C)CN([C@H](C)CO)C2=O | inactive: 0.982
C[C@H]1CCCCO[C@@H](CN(C)S(=O)(=O)c2ccc(F)cc2)[C@@H](C)CN([C@@H](C)CO)C(=O)c2cc(NC(=O)CCC(F)(F)F)ccc2O1 | inactive: 1.01
O=c1ncc(F)c[nH]1 | inactive: 0.962
COc1ccc(CN(C)C[C@H]2OCCCC[C@@H](C)Oc3ccc(NC(=O)c4ccncc4)cc3C(=O)N([C@@H](C)CO)C[C@H]2C)cc1 | inactive: 1
COCC(=O)Nc1ccc2c(c1)C(=O)N(C)[C@H]1CC[C@@H](CC(=O)NC3Cc4ccccc4C3)O[C@H]1CO2 | inactive: 1.01
C[C@@H]1CN([C@H](C)CO)C(=O)c2c(c3ccccc3n2C)-c2ccccc2CO[C@@H]1CN(C)Cc1ccc(-c2ccccc2)cc1 | inactive: 1.01
Cc1ccc2oc(=O)cc(Cl)c2c1 | inactive: 0.999
CC(C)NC(=O)Nc1ccc2c(c1)C(=O)N([C@H](C)CO)C[C@@H](C)[C@@H](CN(C)C(=O)Nc1ccc3c(c1)OCO3)O2 | inactive: 1
C[C@@H]1CN([C@H](C)CO)C(=O)c2cc(NS(=O)(=O)c3cccs3)ccc2O[C@@H]1CN(C)S(=O)(=O)c1cn(C)cn1 | inactive: 0.991
C[C@H](CO)N1C[C@H](C)[C@H](CN(C)S(=O)(=O)c2cccs2)Oc2ncc(C#Cc3ccccc3)cc2C1=O | inactive: 1.04
C[C@H](CO)N1C[C@H](C)[C@@H](CN(C)Cc2ccc(C(=O)Nc3ccccc3N)cc2)OCCCC[C@H](C)Oc2ccc(N(C)C)cc2C1=O | inactive: 0.978
COc1ccc(NC(=O)Cn2c(=O)c3c(OC)ccnc3n(C)c2=O)c(OC)c1 | inactive: 1.01
C[C@H]1CN([C@@H](C)CO)C(=O)Cc2cc(NS(=O)(=O)c3cn(C)cn3)ccc2O[C@H]1CN(C)C(=O)Nc1ccccc1 | inactive: 0.99
NNC(=O)c1cc(=S)nc[nH]1 | inactive: 1.01
O=C([O-])CCCc1ccccc1.[Na+] | inactive: 0.837
COc1ccccc1CN(C)C[C@H]1OCc2ccccc2-c2c(n(C)c3ccccc23)C(=O)N([C@H](C)CO)C[C@H]1C | inactive: 0.989
O=S(=O)(NCC[C@@H]1CC[C@@H](NS(=O)(=O)c2ccccc2Cl)[C@@H](CO)O1)c1ccc(F)cc1 | inactive: 1.03
C[C@@H]1CCCCO[C@H](CN(C)S(=O)(=O)c2ccccc2)[C@H](C)CN([C@@H](C)CO)C(=O)c2cc(NS(=O)(=O)c3cn(C)cn3)ccc2O1 | inactive: 1.01
CC1=NC(=O)C2(CCNCC2)N1 | inactive: 1.01

Structure (SMILES) | relative growth
C[C@H]1CCCCO[C@H](CN(C)CC2CC2)[C@@H](C)CN([C@@H](C)CO)C(=O)c2cc(NC(=O)c3ccccc3)ccc2O1 | inactive: 1.01
O=C1c2ccccc2C(=O)c2c(NCCNCCO)ccc(NCCNCCO)c21 | inactive: 1.13
Cc1ccc2c(c1)C(=O)C[C@@H](c1ccc(Cl)cc1Cl)O2 | inactive: 0.951
CN(C)CC#Cc1ccc([C@@H]2[C@@H](CO)N3CCCCN(C(=O)CN(C)C)C[C@@H]23)cc1 | inactive: 0.996
C[C@@H]1CN([C@@H](C)CO)C(=O)c2cc(NC(=O)C3CC3)ccc2O[C@@H]1CN(C)C(=O)NC1CCCCC1 | inactive: 0.975
Cc1noc(C)c1NC(=O)Nc1ccc2c(c1)C(=O)N([C@H](C)CO)C[C@H](C)[C@@H](CN(C)C(=O)Cc1ccccc1)OCCCC[C@@H](C)O2 | inactive: 1.02
Cc1onc(C(=O)O)c1[N+](=O)[O-] | inactive: 0.986
C=CCc1ccc(O[C@@H]2O[C@H](CO[C@@H]3O[C@@H](C)[C@H](O)[C@@H](O)[C@H]3O)[C@@H](O)[C@H](O)[C@H]2O)c(O)c1 | inactive: 1.02
COc1ccc(cc1)CN1C[C@]2(CCN(CC2)C(=O)Nc2cccc(c2)F)c2c([nH]c3cc(ccc23)OC)[C@H]1CO | inactive: 1.04
Cc1ccc(OC(=O)N(C)C[C@H]2OCc3ccccc3-c3ccccc3C(=O)N([C@@H](C)CO)C[C@H]2C)cc1 | inactive: 1
C[C@@H]1CCCCO[C@@H](CN(C)C(=O)c2ccccc2)[C@H](C)CN([C@H](C)CO)C(=O)c2cc(NC(=O)Nc3ccc(F)cc3)ccc2O1 | inactive: 1.03
Nn1cc(Br)c(=O)[nH]c1=O | inactive: 1.01
C[C@H]1CCCCO[C@H](CN(C)Cc2ccc(C(F)(F)F)cc2)[C@@H](C)CN([C@@H](C)CO)C(=O)c2cc(NC(=O)C3CCCCC3)ccc2O1 | inactive: 1.03
C[C@@H]1CCCCO[C@H](CN(C)C(=O)Nc2ccc(F)cc2)[C@@H](C)CN([C@@H](C)CO)C(=O)c2cc(NC(=O)C3CCCCC3)ccc2O1 | inactive: 1.03
C[C@@H]1CCCCO[C@H](CN(C)C(=O)Nc2ccc(F)cc2)[C@H](C)CN([C@@H](C)CO)C(=O)c2cc(NC(=O)Nc3ccc(F)cc3)ccc2O1 | inactive: 0.99
Cc1ccc(S(=O)(=O)N(C)C[C@H]2Oc3ccc(NC(=O)NC(C)C)cc3C(=O)N([C@@H](C)CO)C[C@H]2C)cc1 | inactive: 0.986
C[C@@H]1CN([C@@H](C)CO)C(=O)CCCn2nncc2CO[C@H]1CN(C)C(=O)CCCN(C)C | inactive: 0.975
C[C@@H]1CCCCO[C@H](CN(C)C(=O)CCCN(C)C)[C@@H](C)CN([C@@H](C)CO)C(=O)c2cc(NC(=O)Nc3cccc4ccccc34)ccc2O1 | inactive: 0.986
C[C@@H]1CN([C@@H](C)CO)C(=O)c2cc(-c3ccncc3)cnc2O[C@@H]1CN(C)S(=O)(=O)c1ccccc1 | inactive: 1
Cc1noc(C)c1NC(=O)Nc1ccc2c(c1)CC(=O)N([C@@H](C)CO)C[C@H](C)[C@@H](CN(C)C(=O)Nc1cccc3ccccc13)O2 | inactive: 1.03
C[C@@H]1CN([C@H](C)CO)C(=O)Cc2cc(NS(=O)(=O)c3ccc(F)cc3)ccc2O[C@H]1CN(C)S(=O)(=O)c1ccc(F)cc1 | inactive: 0.974
